In PubChem BioAssay AID1460 (National Center for Advancing Translational Sciences (NCATS), 2008):
Values joined by “and” are separate entries in the source; they are usually repeats but may differ in a detail not shown here. Identical values can stand only once. Out of some 270,000 compounds screened, about 5,800 (2.1%) were called active. The shares of active, inactive and inconclusive entries below differ from those in the screen. Calls come from the whole dose curve; as a rule, active = well fitted inhibition curve with a large enough effect; inconclusive = small, poorly fitted or top-dose-only effect; inactive = flat fitted curve, though single readings scatter. Where the call is inconclusive, the potency comes from a doubtful curve fit.

target: Microtubule-associated protein tau (Homo sapiens) (UniProt P10636); test: qHTS for Inhibitors of Tau Fibril Formation, Thioflavin T Binding; settings: recombinant tau K18 P301L, heparin-induced fibrillization, ThT fluorescence; series mostly up to 57.4 µM; activity, negative = inhibition: at the top concentration; note: nearly all actives have a fitted effect of over 55% in size
Chain of UniProt P10636 (P10636 whole entry, looked up): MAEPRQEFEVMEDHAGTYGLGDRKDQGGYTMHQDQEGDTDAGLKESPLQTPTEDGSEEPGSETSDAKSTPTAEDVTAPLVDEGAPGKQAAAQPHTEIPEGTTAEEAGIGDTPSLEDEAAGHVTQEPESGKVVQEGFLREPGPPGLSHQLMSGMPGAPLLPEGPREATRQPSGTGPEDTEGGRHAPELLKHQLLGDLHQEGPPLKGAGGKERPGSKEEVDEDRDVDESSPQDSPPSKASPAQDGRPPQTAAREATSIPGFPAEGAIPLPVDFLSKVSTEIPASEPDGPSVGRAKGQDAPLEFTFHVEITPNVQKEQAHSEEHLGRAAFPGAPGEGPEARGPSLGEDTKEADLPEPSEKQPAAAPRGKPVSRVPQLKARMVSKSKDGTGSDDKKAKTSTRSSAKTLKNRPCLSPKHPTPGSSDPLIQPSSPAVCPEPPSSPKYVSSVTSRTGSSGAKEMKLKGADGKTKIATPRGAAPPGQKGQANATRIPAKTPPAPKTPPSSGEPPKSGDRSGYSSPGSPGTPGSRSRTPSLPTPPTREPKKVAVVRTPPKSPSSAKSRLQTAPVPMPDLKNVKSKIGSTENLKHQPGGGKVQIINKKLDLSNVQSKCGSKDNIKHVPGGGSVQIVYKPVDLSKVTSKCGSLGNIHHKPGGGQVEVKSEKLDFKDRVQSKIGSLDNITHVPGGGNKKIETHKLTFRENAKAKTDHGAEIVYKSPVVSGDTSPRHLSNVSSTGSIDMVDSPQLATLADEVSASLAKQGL
Procedure, shortened: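 ThT emission at 510 nm, taken 1 hr after adding 30 uM dye, quantifies aggregates formed when 20 uM heparin acts on human tau K18 P301L for 6 hr at 37 C.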
% is set by controls: 0 for no effect and ±100 for the full control effect; potency is the fitted concentration of half-maximal effect; tags give direction and shape of the fitted curve.

Question: Which “activity, negative = inhibition” value does the source give for `NNC(=O)c1[nH]c2ccc(Cl)cc2c1-c1ccccc1` here?
Answer: inactive: -1.53%

Question: How did the Potency turn out when `CCOc1ccc(-c2nc(CNC(=O)Nc3ccccc3)c(C)o2)cc1` was run?
Answer: inconclusive: 12.6 µM [inhibitor, partial curve]

Question: `Cc1cccc(-c2nc(=S)c3c(o2)CCCC3)c1` was tested. Which Potency did it give?
Answer: inconclusive: 12.6 µM [inhibitor, partial curve]

Question: How did the Potency turn out when `Cc1cc(C)n2c(Nc3ccc4c(c3)OCCO4)c(-c3ccco3)nc2n1` was run?
Answer: inconclusive: 20 µM [inhibitor, single point]

Question: For `COc1cc(-c2nnc(-c3ccc(N4CCOCC4)cc3)o2)cc(OC)c1OC`, which Potency is on record?
Answer: inconclusive: 8.91 µM [inhibitor, partial curve]

Question: With `CC(/C=N/NC(=O)CN1CCN(Cc2ccc(Cl)cc2)CC1)=C\c1ccco1` as the compound, how does the Potency read?
Answer: inconclusive: 20 µM [inhibitor, single point]

Question: For `Nc1c(C(=O)NCc2ccccc2)sc2nc3c(cc12)C(=O)CCC3`, which Potency is on record?
Answer: inconclusive: 35.5 µM [inhibitor, single point]

Question: With `CC(C)(C)c1ccc(C(=O)N2CCCC2)s1` as the compound, how does the “activity, negative = inhibition” value read?
Answer: inactive: -8.35%

Question: With `Brc1ccc(CN2CCc3nc(N4CCN(c5ncccn5)CC4)ncc3C2)cc1` as the compound, how does the Potency read?
Answer: inconclusive: 39.8 µM [inhibitor, single point]

Question: `CCOc1ccccc1Nc1sc(C(=O)c2ccc(Cl)cc2)c(N)c1C(=O)NCCc1ccccc1` was tested. Which Potency did it give?
Answer: inconclusive: 15.8 µM [inhibitor, single point]

Question: With `COc1ccc(C2CC(=O)c3cnc(NC(=O)c4ccccc4OC)nc3C2)c(OC)c1` (configuration not stated) as the compound, how does the Potency read?
Answer: inconclusive: 35.5 µM [inhibitor, single point]

Question: `CN(c1cccc(NC(=O)c2ccc(C(C)(C)C)cc2)c1)S(C)(=O)=O` was tested. Which “activity, negative = inhibition” value did it give?
Answer: inactive: -6.61%

Question: How did the Potency turn out when `COc1ccc(-c2nnc(Nc3nc4c(OC)cccc4s3)o2)cc1` was run?
Answer: inconclusive: 6.31 µM [inhibitor, partial curve]

Question: With `CC(=O)NC(=S)Nc1ccc(N2CCOCC2)c(S(=O)(=O)Nc2cc(Cl)ccc2Cl)c1` as the compound, how does the Potency read?
Answer: inconclusive: 15.8 µM [inhibitor, single point]

Question: How did the Potency turn out when `COc1ccc(N/C=C/C(=O)c2ccc(Oc3ncccn3)cc2)cc1` was run?
Answer: inconclusive: 3.16 µM [inhibitor, full curve]

Question: How did the Potency turn out when `COC(=O)/C=c1/sc2nc3ccccc3n2c1=O` was run?
Answer: inconclusive: 25.1 µM [inhibitor, partial curve]

Question: `Nc1cccn2c(-c3ccc(Cl)cc3)cnc12` was tested. Which Potency did it give?
Answer: inconclusive: 14.1 µM [inhibitor, partial curve]

Question: `CCn1c2ccccc2c2cc(/C=N/NC(=O)c3ccc(O)cc3)ccc21` was tested. Which Potency did it give?
Answer: inconclusive: 1.12 µM [inhibitor, full curve]

Question: With `COc1cc2c(cc1OC)CN(C(=O)CCCOc1ccc(Cl)cc1Cl)CC2` as the compound, how does the Potency read?
Answer: inconclusive: 3.98 µM [inhibitor, partial curve]

Question: `COc1ccc(-c2c3c(nc4sc(C(=O)Nc5cc(C)on5)c(N)c24)CCC3)cc1` was tested. Which Potency did it give?
Answer: inconclusive: 14.1 µM [inhibitor, partial curve]

Question: How did the Potency turn out when `N=c1n(CCO)c2ccccc2n1CCOc1ccc(Cl)cc1Cl` was run?
Answer: inconclusive: 31.6 µM [inhibitor, single point]

Question: Which “activity, negative = inhibition” value does the source give for `CCCn1c(C)nc2c(NCCN3CCCCC3)nc(C)nc21` here?
Answer: inactive: -2.16%

Question: For `NC(=O)C1(N2CCCCC2)CCN(C(=S)Nc2ccccc2)CC1`, which “activity, negative = inhibition” value is on record?
Answer: inactive: -4.69%

Question: Which Potency does the source give for `CCOC(=O)c1sc(-c2ccc(Br)cc2)cc1N` here?
Answer: inconclusive: 12.6 µM [inhibitor, partial curve]

Question: With `Cc1ccccc1NC(=O)c1c(NC(=O)C(F)(F)F)sc2c1CCCCC2` as the compound, how does the Potency read?
Answer: inconclusive: 15.8 µM [inhibitor, partial curve]

Question: For `COc1ccc(-n2c(C)cc(C(=O)CSc3nn4c(=O)c(C(C)(C)C)nnc4s3)c2C)cc1`, which Potency is on record?
Answer: inconclusive: 12.6 µM [inhibitor, partial curve]

Question: Which “activity, negative = inhibition” value does the source give for `CCn1c(C(=O)N2CCC(C(=O)NCCCOC)CC2)cc2sccc21` here?
Answer: inactive: 8.8%

Question: How did the “activity, negative = inhibition” value turn out when `CCN(CC)CCNC(=O)c1ccc(NC(=O)c2ccc(Cl)c(S(=O)(=O)Nc3ccccc3OC)c2)cc1` was run?
Answer: inactive: -12.8%

Question: Which Potency does the source give for `Cc1ccc(S(=O)(=O)N2CCC(=O)N2)cc1` here?
Answer: inconclusive: 14.1 µM [inhibitor, single point]

Question: Which Potency does the source give for `CCCCCCCCCCCCCCCC(=O)N[C@@H](COP(=O)(O)O)C(=O)O` here?
Answer: inactive

Question: `CCN1CCN(c2cc(C)c3cc(NC(=S)N4CCN(c5ccc(F)cc5)CC4)ccc3n2)CC1` was tested. Which Potency did it give?
Answer: inconclusive: 8.91 µM [inhibitor, full curve]

Question: How did the Potency turn out when `CCOc1ccc2nc(NC(=O)c3ccccn3)sc2c1` was run?
Answer: inconclusive: 0.562 µM [inhibitor, partial curve]

Question: How did the Potency turn out when `CC1CN(C(NC(=O)c2ccccc2)C(Cl)(Cl)Cl)CC(C)O1` (configuration not stated) was run?
Answer: inconclusive: 8.91 µM [inhibitor, partial curve]

Question: `CC(=O)NC(c1ccc([N+](=O)[O-])cc1)c1c(O)ccc2ccccc12` (configuration not stated) was tested. Which “activity, negative = inhibition” value did it give?
Answer: inactive: -11.8%

Question: How did the activity, negative = inhibition turn out when `CC(C)[C@@H](OCc1ccccc1)[C@H](C)/C=N\O[C@@H](C)c1cn([C@H](CO)Cc2ccccc2)nn1` was run?
Answer: inactive: -9.82% [at 11.5 µM] and inactive: -7.7% [at 11.5 µM]

Question: How did the Potency turn out when `COc1ccccc1CNC(=O)C(=O)NCC(c1cccnc1)N1CCN(c2ccc(F)cc2)CC1` (configuration not stated) was run?
Answer: inconclusive: 25.1 µM [inhibitor, single point]

Question: Which Potency does the source give for `CC(NC(=O)COc1ncnc2cc([N+](=O)[O-])ccc12)c1ccccc1` (configuration not stated) here?
Answer: inconclusive: 17.8 µM [inhibitor, single point]

Question: For `O=C(O)c1ccc(N=Nc2c(O)[nH]c3ccccc23)cc1`, which Potency is on record?
Answer: active: 15.8 µM

Question: Which Potency does the source give for `CCOc1ccc(CCNC(=O)CN2C(=O)COc3ccc(S(=O)(=O)N(CC)CC)cc32)cc1` here?
Answer: inconclusive: 39.8 µM [inhibitor, single point]

Question: `CCCN1C(=O)/C(=C/c2c(N3CCNC(=O)C3CC(=O)OCC)nc3c(C)cccn3c2=O)SC1=S` (configuration not stated) was tested. Which Potency did it give?
Answer: active: 12.6 µM

Question: How did the Potency turn out when `COc1ccc(N2CCN(CC(O)c3c[nH]c4ccc(OC)cc34)CC2C)cc1` (configuration not stated) was run?
Answer: inconclusive: 17.8 µM [inhibitor, single point]

Question: For `O=S(=O)(c1ccccc1)c1nnn2c1nc(NC1CCCCCC1)c1sccc12`, which “activity, negative = inhibition” value is on record?
Answer: inactive: 13.6%

Question: `COc1ccc(-c2noc(COc3ccc(Cl)c(C)c3)n2)cc1` was tested. Which Potency did it give?
Answer: inconclusive: 2.51 µM [inhibitor, full curve]

Question: Which Potency does the source give for `CC(C)N=c1scc(-c2ccco2)n1/N=C/c1ccc(O)c(O)c1` here?
Answer: active: 14.1 µM

Question: With `COc1ccc2cc(C(c3nnnn3C3CCCC3)N3CCc4ccccc4C3)c(=O)[nH]c2c1` (configuration not stated) as the compound, how does the Potency read?
Answer: active: 28.2 µM

Question: `Cc1ccc2nc(SCC(=O)Nc3ccc4c(c3)OCCO4)[nH]c2c1` was tested. Which Potency did it give?
Answer: inconclusive: 20 µM [inhibitor, partial curve]

Question: `C=CCNC(=O)O/N=C/c1csc([N+](=O)[O-])c1` was tested. Which Potency did it give?
Answer: inconclusive: 8.91 µM [inhibitor, partial curve, poor fit]

Question: With `COc1ccc(NC(=O)N2CCN(c3cccc(C(F)(F)F)c3)CC2)cc1OC` as the compound, how does the Potency read?
Answer: inconclusive: 11.2 µM [inhibitor, single point]

Question: For `O=C(NNc1ccc(C2CCCCC2)cc1)C(O)(c1ccccc1)c1cccs1` (configuration not stated), which Potency is on record?
Answer: inconclusive: 14.1 µM [inhibitor, single point]

Question: For `Cn1c(C(=O)NCCCN2CCc3ccccc3C2)cc2c(=O)n(C)c3ccccc3c21`, which Potency is on record?
Answer: inconclusive: 28.2 µM [inhibitor, partial curve, poor fit]

Question: How did the “activity, negative = inhibition” value turn out when `COC(=O)c1ccc(CNCC(=O)Nc2ccc(C(=O)OC)cc2)cc1` was run?
Answer: inactive: 4.31%

Question: How did the Potency turn out when `COC(=O)c1c(-c2cccs2)csc1NC(=O)c1ccc(C(C)(C)C)cc1` was run?
Answer: active: 25.1 µM

Question: For `O=C(CCl)Nc1ccc(N=Nc2ccccc2)cc1`, which Potency is on record?
Answer: active: 5.01 µM

Question: For `CC1=NN2C(=N)/C(=C\c3cc(C)n(-c4ccc(C)cc4)c3C)C(=O)N=C2S1`, which Potency is on record?
Answer: inconclusive: 0.316 µM [inhibitor, full curve, poor fit]

Question: Which Potency does the source give for `COc1cc(-c2cc(=O)c3ccccc3o2)ccc1O` here?
Answer: inconclusive: 11.2 µM [inhibitor, partial curve, poor fit] and inconclusive: 15.8 µM [inhibitor, partial curve, poor fit]

Question: How did the Potency turn out when `CCC1=NN2C(=N)/C(=C\c3cccn3-c3ccc(Br)cc3)C(=O)N=C2S1` was run?
Answer: inconclusive: 10 µM [inhibitor, partial curve]

Question: For `COc1ccc(-c2nnc(SCC(=O)c3ccc(NC(C)=O)cc3)o2)cc1OC`, which Potency is on record?
Answer: inconclusive: 1.12 µM [inhibitor, full curve]

Question: `CC(C)(C)CC(C)(C)NC(=S)Nc1ccc2nc(-c3ccccn3)c(-c3ccccn3)nc2c1` was tested. Which Potency did it give?
Answer: inconclusive: 35.5 µM [inhibitor, single point]

Question: With `CCN(CC)CCN1C(=O)C(O)=C(C(C)=O)C1c1ccccc1[N+](=O)[O-]` (configuration not stated) as the compound, how does the Potency read?
Answer: inconclusive: 7.08 µM [inhibitor, partial curve]

Question: With `O=P(CO)(Cc1ccccc1)Cc1ccccc1` as the compound, how does the “activity, negative = inhibition” value read?
Answer: inactive: 16%

Question: With `CO[C@@]12[C@@H](COC(N)=O)C3=C(C(=O)C(C)=C(N)C3=O)N1C[C@@H]1N[C@@H]12` as the compound, how does the Potency read?
Answer: inconclusive: 25.1 µM [inhibitor, partial curve]

Question: `Cc1ccc2cc(/C=N/Nc3nc4ccccc4[nH]3)c(Cl)nc2c1` was tested. Which Potency did it give?
Answer: inconclusive: 3.16 µM [inhibitor, partial curve]

Question: `CCOc1[nH]n(-c2ccc(Cl)cc2)c(=O)c1C=Nc1ccc(O)cc1` was tested. Which Potency did it give?
Answer: inconclusive: 20 µM [inhibitor, partial curve]

Question: `O=C(Nc1ccc2nc(SCC(=O)N3CCCC3)sc2c1)c1cccc(F)c1` was tested. Which “activity, negative = inhibition” value did it give?
Answer: inactive: -2.63%

Question: `O=C(O)Cn1c(-c2ccccc2)nc2ccccc21` was tested. Which “activity, negative = inhibition” value did it give?
Answer: inactive: -2.85%

Question: `CC(C)c1ccc(/C=C/C(=O)NC2CCCCC2)cc1` was tested. Which “activity, negative = inhibition” value did it give?
Answer: inactive: -5.84%

Question: `CCOc1ccccc1OCCCNCc1ccco1` was tested. Which “activity, negative = inhibition” value did it give?
Answer: inactive: 3.69%
